Reference: article PMC7396842
Like-named read-outs stand apart in the source and are kept apart here. No constants are given. Whether binding was seen depends on the method and setting. Binding seen in cells or lysates may run through a third protein. Some results given as binding are weak or reduced against the parent protein; the word gives no strength. For some assays here: Tags and fused reporters may be left off the sequences shown. Each block holds one molecule with its values, some of them ahead of it.

By UniProt entry, the sequences of proteins in these tests, tags left out.
UniProt O95166: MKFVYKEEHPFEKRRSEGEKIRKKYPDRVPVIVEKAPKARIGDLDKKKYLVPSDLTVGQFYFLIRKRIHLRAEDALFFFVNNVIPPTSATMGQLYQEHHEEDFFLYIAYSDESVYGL
UniProt O95292: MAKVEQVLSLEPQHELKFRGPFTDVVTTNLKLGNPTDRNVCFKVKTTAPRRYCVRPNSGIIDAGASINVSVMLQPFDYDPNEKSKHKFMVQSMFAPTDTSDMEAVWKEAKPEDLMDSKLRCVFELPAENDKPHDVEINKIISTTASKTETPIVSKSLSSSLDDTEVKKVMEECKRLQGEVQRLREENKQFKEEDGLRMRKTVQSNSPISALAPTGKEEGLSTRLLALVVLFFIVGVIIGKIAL

Key:
[1] = biological target: T1, EGFP-CALCOCO1 (full length), expressed in HEK293 cells (UniProt Q9P1Z2); assay: co-IP; EGFP-CALCOCO1 and Myc-tagged proteins transiently co-expressed in HEK293 cells; EGFP-CALCOCO1 precipitated with GFP-TRAP from lysates in modified RIPA buffer (50 mM Tris-HCl pH 7.4, 120 mM NaCl, 1 mM EDTA, 1% NP-40, 0.25% Triton X-100), 4 °C; anti-Myc blot
T1 sequence: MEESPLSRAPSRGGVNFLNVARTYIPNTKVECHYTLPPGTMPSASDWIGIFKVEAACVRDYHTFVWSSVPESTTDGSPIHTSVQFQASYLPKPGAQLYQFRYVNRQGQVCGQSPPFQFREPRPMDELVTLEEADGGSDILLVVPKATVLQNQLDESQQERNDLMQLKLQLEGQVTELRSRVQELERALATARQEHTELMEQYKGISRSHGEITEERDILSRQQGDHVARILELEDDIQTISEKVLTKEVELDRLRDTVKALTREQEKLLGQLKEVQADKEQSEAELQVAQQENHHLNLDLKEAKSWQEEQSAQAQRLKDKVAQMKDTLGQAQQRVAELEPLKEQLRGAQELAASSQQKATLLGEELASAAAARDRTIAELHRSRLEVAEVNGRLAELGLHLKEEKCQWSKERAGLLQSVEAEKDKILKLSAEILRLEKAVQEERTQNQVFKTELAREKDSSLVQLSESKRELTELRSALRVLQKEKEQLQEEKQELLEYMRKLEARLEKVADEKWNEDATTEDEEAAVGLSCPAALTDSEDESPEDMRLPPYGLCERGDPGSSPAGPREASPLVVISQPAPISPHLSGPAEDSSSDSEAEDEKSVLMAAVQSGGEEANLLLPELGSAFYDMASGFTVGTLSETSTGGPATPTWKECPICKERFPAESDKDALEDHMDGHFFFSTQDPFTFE

GST-GABARAPL2 (human) [2] = biological target: GST-GABARAPL2 (human) (UniProt P60520); assay: pull-down; GST fusion protein from E. coli on Glutathione Sepharose beads; 35S-labelled in vitro translated Myc-tagged protein, precleared, incubated 1 h at 4 °C in NETN buffer (50 mM Tris pH 8.0, 150 mM NaCl, 1 mM EDTA, 0.5% NP-40); five washes; autoradiography; only the target purified
GST-CALCOCO1 (WT) = biological target: T2, GST-CALCOCO1 (WT) (UniProt Q9P1Z2); assay: pull-down; GST-tagged CALCOCO1 constructs on beads; HEK293 cell extracts; endogenous proteins detected by blot; only the target purified
T2 sequence: T1 sequence

[3] = biological target: T3, GST-CALCOCO1 ΔLIR + Δ623–691 (UniProt Q9P1Z2); assay: as above
T3 sequence: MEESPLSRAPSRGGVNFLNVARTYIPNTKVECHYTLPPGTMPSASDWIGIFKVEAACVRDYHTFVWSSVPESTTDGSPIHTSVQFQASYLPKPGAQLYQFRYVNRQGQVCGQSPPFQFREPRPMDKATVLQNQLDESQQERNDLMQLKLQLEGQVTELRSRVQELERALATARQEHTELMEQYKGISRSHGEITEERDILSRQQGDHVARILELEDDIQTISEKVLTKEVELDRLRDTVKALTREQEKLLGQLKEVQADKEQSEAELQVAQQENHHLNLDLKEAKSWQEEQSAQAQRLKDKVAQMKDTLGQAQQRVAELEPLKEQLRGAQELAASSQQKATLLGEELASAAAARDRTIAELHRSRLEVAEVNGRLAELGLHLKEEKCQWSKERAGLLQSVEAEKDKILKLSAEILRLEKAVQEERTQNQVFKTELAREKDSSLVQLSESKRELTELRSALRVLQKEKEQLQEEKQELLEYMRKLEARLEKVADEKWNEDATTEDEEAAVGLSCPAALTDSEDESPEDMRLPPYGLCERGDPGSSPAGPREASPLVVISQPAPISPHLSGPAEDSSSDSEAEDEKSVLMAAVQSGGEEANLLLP

[4] = biological target: T1, EGFP-CALCOCO1 (full length), expressed in HEK293 cells; assay: co-IP; EGFP-CALCOCO1 and Myc-tagged proteins transiently co-expressed in HEK293 cells; EGFP-CALCOCO1 precipitated with GFP-TRAP from lysates in modified RIPA buffer (50 mM Tris-HCl pH 7.4, 120 mM NaCl, 1 mM EDTA, 1% NP-40, 0.25% Triton X-100), 4 °C; anti-Myc blot; remark: listed apart in the source
GST-GABARAP (human) [5] = biological target: GST-GABARAP (human) (UniProt O95166); assay: pull-down; GST-tagged ATG8 family proteins on beads; extracts of cells transiently transfected with Myc-CALCOCO1; anti-Myc blot; only the target purified
GST-GABARAPL2 (human) [6] = biological target: GST-GABARAPL2 (human) (UniProt P60520); assay: as above
[7] = biological target: T4, GFP-CALCOCO1 (full length), in vitro translated (UniProt Q9P1Z2); assay: co-IP; 35S-GFP-CALCOCO1 co-transcribed/translated in vitro with 35S-Myc constructs; GFP-TRAP immunoprecipitation; SDS-PAGE and autoradiography
T4 sequence (chain, 35S-methionine label): T1 sequence

GST-GABARAP (human) [8] = biological target: GST-GABARAP (human) (UniProt O95166); assay: pull-down; GST fusion protein from E. coli on Glutathione Sepharose beads; 35S-labelled in vitro translated Myc-tagged protein, precleared, incubated 1 h at 4 °C in NETN buffer (50 mM Tris pH 8.0, 150 mM NaCl, 1 mM EDTA, 0.5% NP-40); five washes; autoradiography; only the target purified
GST-GABARAPL2 (human) [9] = biological target: GST-GABARAPL2 (human) (UniProt P60520); assay: as above; remark: listed apart in the source
GST-LC3C (human) = GST-LC3C (human) (UniProt Q9BXW4); assay: as above

binding (GST-CALCOCO1 (WT)): binds
binding [3]: no binding
Molecule: endogenous GABARAP of HEK293 cell extracts (from UniProt O95166 1-117)

binding [7]: binds
binding (GST-GABARAP (human) [8]): binds
binding (GST-GABARAPL2 (human) [9]): binds
binding (GST-LC3C (human)): binds weakly
B2: Myc-CALCOCO1 (full length), in vitro translated (protein, UniProt Q9P1Z2 1-691)
chain: T1 sequence
modifications: 35S-methionine label

Second part, the molecule before the results:

Molecule: Myc-VAPB, expressed in HEK293 cells (from UniProt O95292 1-243)
binding [1]: binds

Molecule: Myc-p62, in vitro translated (from UniProt Q13501 1-440)
binding (GST-GABARAPL2 (human) [2]): binds

B1: Myc-CALCOCO1 (full length), expressed in cells (protein, UniProt Q9P1Z2 1-691)
chain: T1 sequence
binding [4]: binds
binding (GST-GABARAP (human) [5]): binds
binding (GST-GABARAPL2 (human) [6]): binds
